# According to article PMC4336329 (PLoS ONE, 2015):
# The campaign covered roughly 310,000 compounds. About 14,000 (4.5%) showed an effect of 50% or more. The effect is printed as a negative number. This is one part of the list.
# Target: human ether-à-go-go-related gene (hERG) potassium channel (human, UniProt Q12809)
# Assay: primary screen, population patch clamp on CHO cells stably expressing hERG
# 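Further: peak tail current of the secondary pulse compared with the same well before compound.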
# Sequence of human ether-à-go-go-related gene (hERG) potassium channel (Q12809 whole entry, looked up): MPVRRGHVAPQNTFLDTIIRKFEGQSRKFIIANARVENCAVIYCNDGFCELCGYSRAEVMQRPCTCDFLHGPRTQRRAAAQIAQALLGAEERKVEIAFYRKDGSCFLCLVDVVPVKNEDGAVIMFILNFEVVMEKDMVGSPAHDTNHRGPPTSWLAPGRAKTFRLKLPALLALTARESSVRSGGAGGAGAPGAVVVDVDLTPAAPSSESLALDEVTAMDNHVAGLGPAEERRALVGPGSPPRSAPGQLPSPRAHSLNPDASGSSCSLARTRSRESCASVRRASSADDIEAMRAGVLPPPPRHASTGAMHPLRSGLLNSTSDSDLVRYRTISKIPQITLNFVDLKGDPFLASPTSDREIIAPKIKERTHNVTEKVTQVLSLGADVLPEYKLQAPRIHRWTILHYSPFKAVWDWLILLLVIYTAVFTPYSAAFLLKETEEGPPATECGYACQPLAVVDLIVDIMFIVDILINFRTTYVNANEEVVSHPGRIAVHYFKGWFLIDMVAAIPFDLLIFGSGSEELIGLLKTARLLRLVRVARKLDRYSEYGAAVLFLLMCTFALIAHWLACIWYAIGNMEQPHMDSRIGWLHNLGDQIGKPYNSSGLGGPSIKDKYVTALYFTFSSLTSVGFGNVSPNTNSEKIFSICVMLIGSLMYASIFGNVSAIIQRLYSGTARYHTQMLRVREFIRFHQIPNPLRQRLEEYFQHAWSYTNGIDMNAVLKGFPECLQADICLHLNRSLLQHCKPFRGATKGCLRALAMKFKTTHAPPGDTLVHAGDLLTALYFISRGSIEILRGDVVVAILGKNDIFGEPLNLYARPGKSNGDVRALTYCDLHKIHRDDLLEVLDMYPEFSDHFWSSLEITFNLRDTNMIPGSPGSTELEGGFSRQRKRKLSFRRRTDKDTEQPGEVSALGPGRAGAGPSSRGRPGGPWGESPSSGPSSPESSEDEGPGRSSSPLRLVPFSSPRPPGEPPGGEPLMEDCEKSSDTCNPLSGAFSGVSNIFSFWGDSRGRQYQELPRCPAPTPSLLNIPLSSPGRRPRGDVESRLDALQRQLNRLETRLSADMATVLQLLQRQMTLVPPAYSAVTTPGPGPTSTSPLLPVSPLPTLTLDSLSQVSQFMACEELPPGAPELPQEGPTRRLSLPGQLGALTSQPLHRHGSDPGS
row,SMILES,"hERG current change (%, negative = inhibition) at 10uM"
1,O=C(Cn1ncc2c3ccccc3n(Cc3ccccc3)c2c1=O)NCc1ccco1,4.65%
2,Cc1ccc(C(C)NC(=O)c2cccnc2)cc1 (centres unmarked),11.2%
3,C#CC1(OC(=O)c2ccccc2)CC(C)N(C)CC1C.Cl (centres unmarked),4.84%
4,Cc1cc([N+](=O)[O-])nn1Cc1noc(C(=O)NCCCn2ccnc2)n1,4.61%
5,COCCN(CCOC)Cc1c(O)ccc2c1O/C(=C\c1ccc(C)o1)C2=O,23.1%
6,COc1cccc(OC)c1C(=O)NC(=S)Nc1ccc(S(=O)(=O)Nc2nccs2)cc1,14.6%
7,COc1ccc(N2CCN(S(=O)(=O)CCNC(=O)C34CC5CC(CC(C5)C3)C4)CC2)cc1,8.8%
8,COc1ccccc1N(CC(=O)Nc1c(C)cccc1C)S(C)(=O)=O,-5.4%
9,Cc1ccc(SCCCCN2C(=O)NC(C)(C)C2=O)cc1,-2.85%
10,COc1cc2c(C(=O)NCc3ccc4c(c3)OCO4)cn(CC(C)C)c(=O)c2cc1OC,7.61%
11,COCOc1ccc(C=O)c(OCOC)c1,7.05%
12,CC(C)Cn1c(CN2CCCCC2C)nc2c1c(=O)n(C)c(=O)n2C (centres unmarked),12.7%
13,COc1ccc(-c2nc(N3CCC(C)CC3)[nH]c(=O)c2C#N)cc1,1.99%
14,CCOC(=O)Cn1nc(C)c(NC(=O)COc2ccccc2[N+](=O)[O-])c1C,24.7%
15,N#Cc1nc(COc2ccccc2)oc1N1CCN(c2cccc(Cl)c2)CC1,4.52%
16,CSc1ccccc1NC(=O)N1CCC(CO)(CC2CCCCO2)CC1 (centres unmarked),18.6%
17,CSCC[C@H](NC(=O)C1CCN(C(=O)[C@@H](N)Cc2ccccc2)CC1)C(=O)O,10.8%
18,CCCc1cc(=O)[nH]c(SCC(=O)N(CC)Cc2ccccc2)n1,7.9%
19,Clc1ccc2c(c1)C(OC1CN3CCC1CC3)c1ccccc1CS2.O=C(O)/C=C\C(=O)O (centres unmarked),-50.6%

row,SMILES,"hERG current change (%, negative = inhibition) at 10uM"
1,Fc1ccc(-c2nnc(CSc3nnc4ccccn34)o2)cc1,-4.03%
2,CCCc1cc(=O)[nH]c(Nc2cc(OC)ccc2OC)n1,4.36%
3,Cc1ccccc1-n1nnnc1SC(C)C(=O)NC1CCCc2ccccc21 (centres unmarked),-18.4%
4,CC(=O)Nc1nnc(SCC(=O)NC2CCCC2)s1,17.4%
5,COc1ccc(N(CC(=O)NC2CC3CCC2C3)S(=O)(=O)c2ccc(C)cc2)cc1OC (centres unmarked),33.9%
6,Cc1cc(Cn2nc(-c3ccccc3)cc2C(=O)NCC2CC2)on1,9.32%
7,COc1ccc(NCc2ccc(OC)c(OC)c2)cc1,2.67%
8,CC(=O)c1ccc(NC(=O)Cn2cnc(S(=O)(=O)N3CCOCC3)c2)cc1,19.9%
9,CCOC(=O)c1c(N)sc(=S)c2c1CCC2,0.392%
10,COC(=O)c1ccccc1NC(=O)c1ccnn1C,10.4%
11,Cc1nnc(SCC(=O)NCCN2C(=O)CSC2=O)n1-c1ccccc1,15.4%
12,CCOC(=O)c1nc(-c2ccccc2)oc1N1CCOCC1,-18.9%
13,N#C/C(=C\Nc1ccc(Cl)cn1)S(=O)(=O)c1ccccc1,2.13%
14,CC(C)n1cc(NC(=O)c2cc(-c3ccccc3)on2)cn1,-32.6%
15,COC(=O)c1c(NC(=O)C2COc3ccccc3O2)sc2c1CCN(C(C)=O)C2 (centres unmarked),-45.1%
16,COc1ccc(CCN(C)C(=O)CNC(=O)c2ccccc2F)cc1OC,9.4%
17,COc1ccc2oc(C(=O)OCC(=O)c3ccc4c(c3)OCCO4)c(C)c2c1,18.2%
18,COc1ccc(N2CCN(C(=O)c3ccc(CNS(=O)(=O)c4ccc(C)cc4)cc3)CC2)cc1,13.9%
19,S=c1[nH]nc(C2CC2)n1Cc1ccco1,3.93%

row,SMILES,"hERG current change (%, negative = inhibition) at 10uM"
1,COc1cc2c(cc1OC)CN(CC(O)c1ccccc1)CC2 (centres unmarked),14.4%
2,COc1cc(NC(=O)c2cc(C3CC3)on2)c(OC)cc1Cl,-2.28%
3,Cc1cc(C)c2c(c1)N[C@H](c1cccs1)[C@@H]1CCO[C@H]21,-5.78%
4,CCOC(=O)C(CCCCP(=O)(c1ccccc1)c1ccccc1)(NC(C)=O)C(=O)OCC,-12.1%
5,O=[N+]([O-])c1ccc(-c2n(-c3ccccn3)c3ccccc3[n+]2-c2ccccn2)cc1.[I-],-24.1%
6,CCc1ccc(N(CC(=O)NCc2ccc(OC)cc2)C(=O)CCC(=O)Nc2ccccn2)cc1,-42.3%
7,CCC(C)N1C(=O)N(c2cccc(Cl)c2)C(C)(O)CC1(C)C (centres unmarked),3.31%
8,O=C(O)c1cccc(C(=O)Nc2cccc(NC(=O)C3CCCO3)c2)c1 (centres unmarked),23.1%
9,Cn1nc(C(=O)NCc2ccccc2)c2c1-c1ccccc1S(=O)(=O)C2,-33.4%
10,COc1cc2ccccc2cc1C(=O)Nc1ccc(O)cc1,2.49%
11,O=C(N/C(=C/c1ccc2c(c1)OCO2)C(=O)N1CCOCC1)c1cccs1,9.12%
12,O=C(CC1OC(=O)c2ccccc21)Nc1cc(S(=O)(=O)N2CCOCC2)ccc1OCC(F)(F)F (centres unmarked),-52.2%
13,Cc1ccc(C(C)(C)C)cc1S(=O)(=O)NC(=O)c1ccccc1,17%
14,O=C(c1ccccc1F)N(Cc1ccccc1)C1CCS(=O)(=O)C1 (centres unmarked),3.86%
15,O=C(Cn1cnc2scc(-c3ccc(F)cc3)c2c1=O)N1CCOCC1,4.91%
16,CC(C(=O)Nc1ccc(Br)cc1C(=O)c1ccccc1)N1CCOCC1 (centres unmarked),-58.6%
17,CN(Cc1ccccc1)C(=O)CCCn1c(=O)c2cccn2c2cccnc21,-32.3%
18,O=C1CCC/C1=C\Nc1ccc(Cl)c([N+](=O)[O-])c1,7.12%
